# Out of some 310,000 compounds screened, about 18,000 (5.8%) were called active. The shares of active, inactive and inconclusive entries below differ from those in the screen. Calls follow the shape of the dose curve; as a rule, active = well fitted inhibition curve with a large enough effect; inconclusive = small, poorly fitted or top-dose-only effect, or another doubt; inactive = no such curve, though single readings can be large or run the other way. Potencies of inconclusive entries are left out as doubtful fits.
# Experiment: Primary qHTS for delayed death inhibitors of the malarial parasite plastid, 48 hour incubation
# Conditions: P. falciparum luciferase growth in erythrocytes; series mostly up to 28.7 µM; activity change, negative = inhibition: at the top concentration
# Procedure, shortened: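 A one-generation exposure of luciferase-tagged malaria parasites in RPMI 1640/Albumax erythrocyte culture, 37 C and 5% CO2. Inhibition is inferred from decreased luminescence after adding detection reagent.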
# % is scaled to controls: 0 for no effect and ±100 for the full control effect; potency is read from the fitted curve at half-maximal effect; tags tell the direction and shape of the fitted curve.
SMILES,Potency,"activity change, negative = inhibition"
O=C(c1ccc(S(=O)(=O)Cc2ccccc2Cl)c([N+](=O)[O-])c1)N1CCN(c2ccccn2)CC1,"inconclusive [inhibitor, single point]",–
O=c1onc(-c2ccc(Cl)cc2Cl)n1-c1cccnc1,–,inactive: 48.7%
FC(F)(F)c1cc(CCN2C(=S)NC[C@@H]2CC2CCCCC2)cc(C(F)(F)F)c1,"inconclusive [inhibitor, single point]",–
CC(C)(CC(=O)O)CC(=O)Nc1ccc(Cl)c(Cl)c1,–,inactive: -4.16%
Oc1ccc(C2=CSC3=NCCN23)cc1O,active: 9.28 µM,–
CC(=O)Nc1cccc(NC(=O)Cc2nc(-c3ccccc3)sc2-c2ccc(C)cc2)c1,"inconclusive [inhibitor, single point]",–
O=C(NCc1ccccc1)c1onc(CSc2ccc(Cl)cc2)c1C(=O)NCC1CC1,"inconclusive [inhibitor, partial curve, poor fit]",–
O=[N+]([O-])c1cc(Br)cc(C=Nc2ccc3c(c2)OCO3)c1O,–,inactive: -18.3%
CC(C)=CC(=O)OCC(=O)Nc1nc(C)c(Cl)cc1Cl,–,inactive: 17%
CCCOc1ccc(NC(=O)C2CCCNC2=O)cc1 (stereo not given),–,inactive: 24.6%
Cc1[nH]c(=S)c(C#N)c(C)c1Cc1ccc(Cl)cc1Cl,"inconclusive [inhibitor, partial curve, poor fit]",–
Cc1nn(Cc2ccccc2)c(C)c1NC(=O)CSc1nnc(-c2cc(Cl)ccc2O)n1C,"inconclusive [inhibitor, single point]",–
COc1ccc(-c2cc(C#N)nc(NN)n2)cc1,"inconclusive [inhibitor, partial curve]",–
CN(Cc1cnccn1)Cc1c(C(=O)N2CCc3ccccc3C2)nc2ccc(Cl)cn12,active: 11.7 µM,–
O=C(NCc1ccncc1)C1CCCN(S(=O)(=O)c2cc(Cl)ccc2Cl)C1 (stereo not given),"inconclusive [inhibitor, single point]",–
O=C(O)CC(NCc1ccco1)C(=O)OCC1CCCO1 (stereo not given),"inconclusive [inhibitor, full curve, poor fit]",–
CCNS(=O)(=O)c1ccc(CCC(=O)N2CCc3ccccc3C2)cc1,–,inactive: -1.82%
Cc1nc(Cl)cc(CS(=O)(=O)c2ccc(Cl)cc2)n1,–,inactive: 0%
S=C1NCCc2ccccc2C1c1ccccc1 (stereo not given),active: 8.28 µM,–
COc1cccc(C2C3=C(CCCC3=O)Nc3[nH]n(-c4ccccc4)c(=O)c32)c1 (stereo not given),–,inactive: -10.2%
COC(=O)c1cccc(C23CC4(C2)[C@H](CN(Cc2ccc(-c5ccccc5)cc2)[C@@H]4c2ccccc2)C3c2ccc(C(F)(F)F)cc2)c1 (stereo not given in full),"inconclusive [inhibitor, single point]",–
COCC(C)NC(=O)CSc1nnc(-c2cccc(S(=O)(=O)N3CCCCC3)c2)o1 (stereo not given),"inconclusive [inhibitor, partial curve, poor fit]",–
O=S(=O)(Nc1cc(Sc2cccc3cccnc23)c(O)c2ccccc12)c1ccccc1,active: 3.29 µM,–
COc1ccc(-c2c[n+](CC(=O)OC3CC(C)CCC3C(C)C)c3n2CCC3)cc1 (stereo not given),"inconclusive [inhibitor, full curve]",–
CCCCCCNS(=O)(=O)c1ccccc1Br,"inconclusive [inhibitor, partial curve, poor fit]",–

SMILES,Potency,"activity change, negative = inhibition"
Cc1cc(C(F)(F)F)nn1CC(=O)Nc1ccc(Br)c2cccnc12,"inconclusive [inhibitor, single point]",–
CC1CCCN(C(=O)c2ccc([N+](=O)[O-])o2)C1 (stereo not given),active: 13.1 µM,–
Cc1cc(C)c(S(=O)(=O)Nc2ccccc2-c2ccccc2)c(C)c1,"inconclusive [inhibitor, single point]",–
COc1ccc(C(=O)NCc2oc(-c3ccccc3)cc2C(=O)O)cc1,–,inactive: -2.96%
CC(C)(CNc1ccc(C(F)(F)F)cc1[N+](=O)[O-])N1CCOCC1,active: 9.28 µM,–
CN(C)S(=O)(=O)c1cc(NC(=O)c2ccc(-n3ccnc3)c([N+](=O)[O-])c2)ccc1Cl,active: 8.28 µM,–
O=C(N/N=C/c1cccnc1)c1cc2ccccc2cc1O,active: 2.94 µM,–
O=S(=O)(NCCCc1ccccc1)c1cccc2nsnc12,–,inactive: -6%
COc1ccc(N(C(=O)c2ccco2)C(C(=O)NC2CCCC2)c2cccnc2)c(OC)c1 (stereo not given),"inconclusive [inhibitor, single point]",–
N#Cc1c(N)n(CCCN2CCOCC2)c2nc3ccccc3nc12,"inconclusive [inhibitor, single point]",–
CCOc1ccc(CC(=NCCO)C2=C(O)CC(C)(C)CC2=O)cc1OCC,–,inactive: 34.5%
CSc1nnc(-c2sc3cc(Cl)ccc3c2Cl)n1C,–,inactive: 20.2%
O=[N+]([O-])c1ccccc1/C=N/n1c(C2CCCCC2)n[nH]c1=S,–,inactive: 19.5%
COc1ccc(NS(=O)(=O)c2cc(NC(=O)c3ccc(=O)[nH]c3)ccc2C)cc1,–,inactive: 14.3%
Nc1nc(-c2ccc3c(c2)NC(=O)CO3)cs1,–,inactive: 19.4%
Cc1cc(=O)oc2n[nH]c(-c3ccccc3)c12,–,inactive: 18.3%
CCn1c(SCC(=O)Nc2nc(C)cs2)nnc1-c1ccco1,"inconclusive [inhibitor, partial curve, poor fit]",–
CC(C)(Oc1ccc(Cl)cc1)C(=O)NC1CCCCC1,active: 11.7 µM,–
Cc1ccc(CSCCNC(=O)c2ccc(C)cc2)cc1,active: 13.1 µM,–
NC(=O)c1cc2cc([N+](=O)[O-])ccc2oc1=O,–,inactive: 2.97%
COc1ccc(-n2nc(C(=O)NCC(=O)N3CCN(Cc4ccccc4)CC3)c3ccccc3c2=O)c(OC)c1,"inconclusive [inhibitor, partial curve, poor fit]",–
N#C/C(=C\c1ccncc1)c1nc2ccccc2c(=O)[nH]1,"inconclusive [inhibitor, single point]",–
CCn1cc(C(=O)O)c(=O)c2cc(F)c(N3CCN(C(=S)NC(=O)c4ccccc4Br)CC3)cc21,"inconclusive [inhibitor, single point]",–
CCN(c1ccccc1)S(=O)(=O)c1ccc(C(=O)N2CC(C)CC(C)C2)cc1 (stereo not given),"inconclusive [inhibitor, partial curve, poor fit]",–
Fc1ccccc1NC(=S)NCCc1ccc(Cl)cc1,"inconclusive [inhibitor, single point]",–

SMILES,Potency,"activity change, negative = inhibition"
C=CCn1c(SCC(=O)N(CC)C2CCS(=O)(=O)C2)nnc1-c1ccccc1 (stereo not given),"inconclusive [inhibitor, partial curve, poor fit]",–
COc1ccc2[nH]c(=O)c(CN(Cc3nnnn3CCc3ccccc3)CC3CCCO3)cc2c1 (stereo not given),"inconclusive [inhibitor, partial curve]",–
CCC(C)c1ccc(OCCn2cc(/C=N/NC(=O)CSc3nnc(C)s3)c3ccccc32)cc1 (stereo not given),"inconclusive [inhibitor, single point]",–
C[Se]CCC(N)C(=O)O (stereo not given),–,inactive: 1.57%
Nc1nnnn1/N=C/c1ccccc1,–,inactive: 8.72%
COC(=O)C1=C(c2ccccc2OCc2ccccc2)C[C@@H]2CC[C@H]1N2C(=O)NCc1ccc(OC)c(OC)c1,active: 13.1 µM,–
COC(=O)c1ccccc1SC(CC(=O)c1ccccc1)c1ccc(F)cc1 (stereo not given),"inconclusive [inhibitor, single point]",–
CC(NCc1ccc(S(N)(=O)=O)cc1)C(=O)Nc1cccc(Cl)c1 (stereo not given),–,inactive: -0.479%
Cc1ccc(N(C)S(=O)(=O)c2cc(-c3cnc(C4CC4)o3)ccc2C)cc1,"inconclusive [inhibitor, single point]",–
NC(=S)Nc1cnc2ccccc2c1,–,inactive: 56.9%
Cc1cccc(Cn2nc(C)c(NC(=O)c3ccc(F)cc3)c2C)c1,–,inactive: -21.1%
O=C(NC1CCCCCC1)C(Cc1ccccc1)n1cccc1 (stereo not given),"inconclusive [inhibitor, partial curve, poor fit]",–
CCc1ccccc1NC(=S)NC1CC2CCC(C1)N2Cc1ccc(F)cc1 (stereo not given),active: 7.38 µM,–
Cc1ccccc1-n1nnnc1SC(C)C(=O)NC1CCCc2ccccc21 (stereo not given),"inconclusive [inhibitor, partial curve]",–
COc1ccc(-n2nc([N+](=O)[O-])c(=NCCc3ccc(Cl)cc3)n2O)cc1,"inconclusive [inhibitor, partial curve, poor fit]",–
COC(=O)C1=C(C)N(c2ccc(F)c(Cl)c2)C(=O)C1,"inconclusive [inhibitor, single point]",–
O=C1/C(=C/c2ccccc2)N=C(N2CCOCC2)N1c1cccc(Cl)c1,"inconclusive [inhibitor, single point]",–
CN(C)c1nc(C=C(C#N)C#N)c(Cl)n1-c1ccc(F)cc1,"inconclusive [inhibitor, single point]",–
CN(CC(=O)Nc1ccccc1C(F)(F)F)C(=O)CC1OC(=O)c2ccccc21 (stereo not given),"inconclusive [inhibitor, single point]",–
CN(CCC1CCCCO1)C(=O)c1cc(COc2ccc(F)cc2F)on1 (stereo not given),–,inactive: -24.1%
Cc1[nH]n(C)c(=O)c1[N+](=O)[O-],–,inactive: 1.52%
O=C(CSc1nc2nc(-c3cccs3)cc(C(F)(F)F)c2c(=O)[nH]1)Nc1ccc(F)c(F)c1,–,inactive: -10.5%
CCCCc1cc(=O)oc2cc(C)cc(OCC(=O)NCc3ccncc3)c12,"inconclusive [inhibitor, partial curve]",–
C/C(=N\NC(=O)c1ccccc1OCCOc1ccccc1)c1ccccc1F,active: 11.7 µM,–
Cc1occc1-c1nnc(SCC(=O)N2CCN(c3ccc(F)cc3)CC2)n1C,–,inactive: -9.92%

# — PubChem BioAssay AID504832 (National Center for Advancing Translational Sciences (NCATS), 2011)
